{"source": "paper PMC12820563", "about": "“FoxP3 forms a head-to-head dimer in vivo and stabilizes its multimerization on adjacent microsatellites”", "note": "The other results are listed elsewhere or left out."}
{"target": "T1, MBP-FoxP1dN (Mus musculus, UniProt P58462 326-579)", "T1 sequence": "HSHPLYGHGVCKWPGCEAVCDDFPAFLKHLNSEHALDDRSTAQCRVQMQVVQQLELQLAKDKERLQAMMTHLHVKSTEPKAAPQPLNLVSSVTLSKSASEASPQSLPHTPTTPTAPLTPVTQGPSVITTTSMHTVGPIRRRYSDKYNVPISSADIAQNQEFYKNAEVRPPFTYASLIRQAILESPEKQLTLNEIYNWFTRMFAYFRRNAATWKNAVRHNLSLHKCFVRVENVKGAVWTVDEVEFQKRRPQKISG", "assay": "PD-seq (MBP pull-down with sequencing); 20 mM Tris-HCl pH 7.5, 100 mM NaCl, 1.5 mM MgCl2, 0.4 uM protein, 0.1 uM dsDNA library, 30 min, room temperature, amylose pull-down; high values mean tight binding", "conditions": "protein: recombinant; tags: His6-MBP; chain copies: 2; dsDNA, one strand shown", "in_short": "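Binding is reads-per-million enrichment of pull-down over input, with replicates pooled. It comes from 30 min room-temperature incubation in Tris pH 7.5 buffer with NaCl and MgCl2 of 0.4 µM His6-MBP-tagged, N-terminally truncated mouse FoxP3 or FoxP1 fragment from E. coli with 0.1 µM Klenow-filled degenerate double-stranded DNA library, followed by amylose resin capture, three washes and Illumina sequencing of the released DNA.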"}
{"sequence": "GATGATTGTTCTCCCAGCTGATGAATTCTAACATTCGAGTAAACAAATTTTCCTAATCTTTCTGTTCAAGCGCCATCTAC", "binding signal": "1.09 RPM ratio (pull-down/input)"}
{"sequence": "GATGATTGTTCTCCCAGCTGATGAATTCTACGTTTCGAGTAAACAAATTTTCCTAATCTTTCTGTTCAAGCGCCATCTAC", "binding signal": "0.924 RPM ratio (pull-down/input)"}
{"sequence": "GATGATTGTTCTCCCAGCTGATGAATTTTCACGGTCGAGTAAACAAATTTTCCTAATCTTTCTGTTCAAGCGCCATCTAC", "binding signal": "0.822 RPM ratio (pull-down/input)"}
{"sequence": "GATGATTGTTCTCCCAGCTGATGAATTCAAGCTGTCGAGTAAACAAATTTTCCTAATCTTTCTGTTCAAGCGCCATCTAC", "binding signal": "0.905 RPM ratio (pull-down/input)"}
{"sequence": "GATGATTGTTCTCCCAGCTGATGAATTATCCTTGTCGAGTAAACAAATTTTCCTAATCTTTCTGTTCAAGCGCCATCTAC", "binding signal": "0.862 RPM ratio (pull-down/input)"}
{"sequence": "GATGATTGTTCTCCCAGCTGATGAATTATAATTGTCGAGTAAACAAATTTTCCTAATCTTTCTGTTCAAGCGCCATCTAC", "binding signal": "1.35 RPM ratio (pull-down/input)"}
{"sequence": "GATGATTGTTCTCCCAGCTGATGAATTGTAGGCTTCGAGTAAACAAATTTTCCTAATCTTTCTGTTCAAGCGCCATCTAC", "binding signal": "0.939 RPM ratio (pull-down/input)"}
{"sequence": "GATGATTGTTCTCCCAGCTGATGAATTGCGACTGTCGAGTAAACAAATTTTCCTAATCTTTCTGTTCAAGCGCCATCTAC", "binding signal": "1.02 RPM ratio (pull-down/input)"}
{"sequence": "GATGATTGTTCTCCCAGCTGATGAATTACCATCGTCGAGTAAACAAATTTTCCTAATCTTTCTGTTCAAGCGCCATCTAC", "binding signal": "0.977 RPM ratio (pull-down/input)"}
{"sequence": "GATGATTGTTCTCCCAGCTGATGAATTAATGAGGTCGAGTAAACAAATTTTCCTAATCTTTCTGTTCAAGCGCCATCTAC", "binding signal": "0.83 RPM ratio (pull-down/input)"}
{"sequence": "GATGATTGTTCTCCCAGCTGATGAATTCTGGTTCTCGAGTAAACAAATTTTCCTAATCTTTCTGTTCAAGCGCCATCTAC", "binding signal": "0.806 RPM ratio (pull-down/input)"}
{"sequence": "GATGATTGTTCTCCCAGCTGATGAATTACGGGTTTCGAGTAAACAAATTTTCCTAATCTTTCTGTTCAAGCGCCATCTAC", "binding signal": "1.06 RPM ratio (pull-down/input)"}
{"sequence": "GATGATTGTTCTCCCAGCTGATGAATTCTTTTACTCGAGTAAACAAATTTTCCTAATCTTTCTGTTCAAGCGCCATCTAC", "binding signal": "0.857 RPM ratio (pull-down/input)"}
{"sequence": "GATGATTGTTCTCCCAGCTGATGAATTGAATAGTTCGAGTAAACAAATTTTCCTAATCTTTCTGTTCAAGCGCCATCTAC", "binding signal": "0.895 RPM ratio (pull-down/input)"}
{"sequence": "GATGATTGTTCTCCCAGCTGATGAATTAAAATCTTCGAGTAAACAAATTTTCCTAATCTTTCTGTTCAAGCGCCATCTAC", "binding signal": "0.925 RPM ratio (pull-down/input)"}
{"sequence": "GATGATTGTTCTCCCAGCTGATGAATTCACCCTATCGAGTAAACAAATTTTCCTAATCTTTCTGTTCAAGCGCCATCTAC", "binding signal": "0.854 RPM ratio (pull-down/input)"}
{"sequence": "GATGATTGTTCTCCCAGCTGATGAATTAGGATACTCGAGTAAACAAATTTTCCTAATCTTTCTGTTCAAGCGCCATCTAC", "binding signal": "0.974 RPM ratio (pull-down/input)"}
{"sequence": "GATGATTGTTCTCCCAGCTGATGAATTGCAACTCTCGAGTAAACAAATTTTCCTAATCTTTCTGTTCAAGCGCCATCTAC", "binding signal": "1.51 RPM ratio (pull-down/input)"}
{"sequence": "GATGATTGTTCTCCCAGCTGATGAATTTTTTCAGTCGAGTAAACAAATTTTCCTAATCTTTCTGTTCAAGCGCCATCTAC", "binding signal": "0.939 RPM ratio (pull-down/input)"}
{"sequence": "GATGATTGTTCTCCCAGCTGATGAATTCGCTCTTTCGAGTAAACAAATTTTCCTAATCTTTCTGTTCAAGCGCCATCTAC", "binding signal": "0.909 RPM ratio (pull-down/input)"}
{"sequence": "GATGATTGTTCTCCCAGCTGATGAATTACATACCTCGAGTAAACAAATTTTCCTAATCTTTCTGTTCAAGCGCCATCTAC", "binding signal": "1.11 RPM ratio (pull-down/input)"}
{"sequence": "GATGATTGTTCTCCCAGCTGATGAATTCCGTAATTCGAGTAAACAAATTTTCCTAATCTTTCTGTTCAAGCGCCATCTAC", "binding signal": "1.02 RPM ratio (pull-down/input)"}
{"sequence": "GATGATTGTTCTCCCAGCTGATGAATTGTAAGGTTCGAGTAAACAAATTTTCCTAATCTTTCTGTTCAAGCGCCATCTAC", "binding signal": "0.881 RPM ratio (pull-down/input)"}
{"sequence": "GATGATTGTTCTCCCAGCTGATGAATTGAAGTCCTCGAGTAAACAAATTTTCCTAATCTTTCTGTTCAAGCGCCATCTAC", "binding signal": "0.817 RPM ratio (pull-down/input)"}
{"sequence": "GATGATTGTTCTCCCAGCTGATGAATTCCACCCCTCGAGTAAACAAATTTTCCTAATCTTTCTGTTCAAGCGCCATCTAC", "binding signal": "0.781 RPM ratio (pull-down/input)"}
{"sequence": "GATGATTGTTCTCCCAGCTGATGAATTAATCGGCTCGAGTAAACAAATTTTCCTAATCTTTCTGTTCAAGCGCCATCTAC", "binding signal": "0.83 RPM ratio (pull-down/input)"}
{"sequence": "GATGATTGTTCTCCCAGCTGATGAATTTCGCCTTTCGAGTAAACAAATTTTCCTAATCTTTCTGTTCAAGCGCCATCTAC", "binding signal": "0.926 RPM ratio (pull-down/input)"}
{"sequence": "GATGATTGTTCTCCCAGCTGATGAATTACCACGGTCGAGTAAACAAATTTTCCTAATCTTTCTGTTCAAGCGCCATCTAC", "binding signal": "0.924 RPM ratio (pull-down/input)"}
{"sequence": "GATGATTGTTCTCCCAGCTGATGAATTGCTTTGCTCGAGTAAACAAATTTTCCTAATCTTTCTGTTCAAGCGCCATCTAC", "binding signal": "1.06 RPM ratio (pull-down/input)"}
{"sequence": "GATGATTGTTCTCCCAGCTGATGAATTAGTGGTTTCGAGTAAACAAATTTTCCTAATCTTTCTGTTCAAGCGCCATCTAC", "binding signal": "0.926 RPM ratio (pull-down/input)"}
{"sequence": "GATGATTGTTCTCCCAGCTGATGAATTTAAATCGTCGAGTAAACAAATTTTCCTAATCTTTCTGTTCAAGCGCCATCTAC", "binding signal": "0.931 RPM ratio (pull-down/input)"}
